Some of the results follow. Most values come without repeats; read them as rough.
test system: MZ2-MEL; test: cell count relative to DMSO control; melanoma cells; higher = more viable cells; details: library dose: standard library concentration; 72 h
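Note: cells treated in 1,536-well plates, then fixed and DAPI-stained, with nuclei counted from automated high-throughput microscope images.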

Row | SMILES | cell count
1 | Cn1cnc2c(F)c(Nc3ccc(Br)cc3Cl)c(C(=O)NOCCO)cc21 [selumetinib] + COc1ccc(COc2ccc(Cc3cnc(N)nc3N)cc2OC)cc1 [GW2580] (first compound 0.075 µM, partner dose 5 µM) | 72.8%
2 | C[C@]1(O)C[C@@H](c2nc(-c3ccc4ccc(-c5ccccc5)nc4c3)c3c(N)nccn32)C1 + Cn1c(=O)n(-c2ccc(C(C)(C)C#N)cc2)c2c3cc(-c4cnc5ccccc5c4)ccc3ncc21 [NVP-BEZ235] (first compound 2 µM, partner dose 0.02 µM) | 61.3%
3 | Cn1cnc2c(F)c(Nc3ccc(Br)cc3Cl)c(C(=O)NOCCO)cc21 [selumetinib] + O=C(O)c1ccc(-c2c[nH]c3ncc(-c4ccccc4)cc23)cc1C1CCCC1 [GSK650394] (first compound 0.075 µM, partner dose 0.8 µM) | 81.3%
4 | COc1cc([C@@H]2c3cc4c(cc3[C@@H](O[C@@H]3O[C@@H]5CO[C@@H](C)O[C@H]5[C@H](O)[C@H]3O)[C@H]3COC(=O)[C@H]23)OCO4)cc(OC)c1O [etoposide] + COc1ccc2c(c1)CCC1C2CCC2(C)C(NCCCCCCN3C(=O)C=CC3=O)CCC12 [U73122] (first compound 0.1 µM, partner dose 2 µM) | 98.7%
5 | COc1cc([C@@H]2c3cc4c(cc3[C@@H](O[C@@H]3O[C@@H]5CO[C@@H](C)O[C@H]5[C@H](O)[C@H]3O)[C@H]3COC(=O)[C@H]23)OCO4)cc(OC)c1O [etoposide] + COc1ccc(-c2ccc3c(N4CCOCC4)nc(N4C[C@@H](C)O[C@@H](C)C4)nc3n2)cc1CO [KU0063794] (first compound 0.1 µM, partner dose 0.1 µM) | 61.2%
6 | COc1cc([C@@H]2c3cc4c(cc3[C@@H](O[C@@H]3O[C@@H]5CO[C@@H](C)O[C@H]5[C@H](O)[C@H]3O)[C@H]3COC(=O)[C@H]23)OCO4)cc(OC)c1O [etoposide] + Cc1cc(N2CCOCC2)cc2[nH]c(-c3c(NC[C@@H](O)c4cccc(Cl)c4)cc[nH]c3=O)nc12 [BMS536924] (first compound 0.1 µM, partner dose 1 µM) | 71.9%
7 | Cn1cnc2c(F)c(Nc3ccc(Br)cc3Cl)c(C(=O)NOCCO)cc21 [selumetinib] + CN1CCN(c2ccc3nc(-c4c(N)c5c(F)cccc5[nH]c4=O)[nH]c3c2)CC1 [Dovitinib] (first compound 0.075 µM, partner dose 0.5 µM) | 21.8%
8 | C[C@]1(O)C[C@@H](c2nc(-c3ccc4ccc(-c5ccccc5)nc4c3)c3c(N)nccn32)C1 + O=S(=O)(c1ccccc1)N(CC(F)(F)F)c1ccc(C(O)(C(F)(F)F)C(F)(F)F)cc1 [T0901317] (first compound 2 µM, partner dose 7 µM) | 142%

test system: MeWo; test: as above; details: library dose: standard library concentration; 72 h

Row | SMILES | cell count
9 | COc1cc([C@@H]2c3cc4c(cc3[C@@H](O[C@@H]3O[C@@H]5CO[C@@H](C)O[C@H]5[C@H](O)[C@H]3O)[C@H]3COC(=O)[C@H]23)OCO4)cc(OC)c1O [etoposide] + NC(=O)Nc1cc(-c2cccc(F)c2)sc1C(=O)N[C@H]1CCCNC1 [AZD7762] (first compound 0.1 µM, partner dose 0.1 µM) | 69.6%
10 | CCN(CC)CCNC(=O)c1c(C)[nH]c(/C=C2\C(=O)Nc3ccc(F)cc32)c1C [sunitinib] + Nc1ccn([C@@H]2O[C@H](CO)[C@@H](O)C2(F)F)c(=O)n1 [gemcitabine] (first compound 2 µM, partner dose 0.002 µM) | 32%
11 | C[C@]1(O)C[C@@H](c2nc(-c3ccc4ccc(-c5ccccc5)nc4c3)c3c(N)nccn32)C1 + O=C(O)c1ccc2c(c1)nc(Nc1cccc(Cl)c1)c1ccncc12 [CX4945] (first compound 2 µM, partner dose 2 µM) | 80.8%
12 | COc1cc([C@@H]2c3cc4c(cc3[C@@H](O[C@@H]3O[C@@H]5CO[C@@H](C)O[C@H]5[C@H](O)[C@H]3O)[C@H]3COC(=O)[C@H]23)OCO4)cc(OC)c1O [etoposide] + CS(=O)(=O)c1ccc(C(=O)Nc2ccc(Cl)c(-c3ccccn3)c2)c(Cl)c1 [vismodegib] (first compound 0.1 µM, partner dose 5 µM) | 90.8%
13 | Cn1cnc2c(F)c(Nc3ccc(Br)cc3Cl)c(C(=O)NOCCO)cc21 [selumetinib] + COC(=O)c1sccc1S(=O)(=O)Nc1ccc(Nc2ccccc2)cc1OC [GSK0660] (first compound 0.075 µM, partner dose 5 µM) | 84.4%
14 | CCN(CC)CCNC(=O)c1c(C)[nH]c(/C=C2\C(=O)Nc3ccc(F)cc32)c1C [sunitinib] + COc1cc(Nc2ncc(F)c(Nc3ccc4c(n3)NC(=O)C(C)(C)O4)n2)cc(OC)c1OC [Tamatinib] (first compound 2 µM, partner dose 2 µM) | 70%
15 | Cn1cnc2c(F)c(Nc3ccc(Br)cc3Cl)c(C(=O)NOCCO)cc21 [selumetinib] + CC(C)(C)c1cnc(CSc2cnc(NC(=O)C3CCNCC3)s2)o1 [SNS-032] (first compound 0.075 µM, partner dose 0.05 µM) | 68.7%
16 | C[C@]1(O)C[C@@H](c2nc(-c3ccc4ccc(-c5ccccc5)nc4c3)c3c(N)nccn32)C1 + CCN(CC)CCNC(=O)c1c(C)[nH]c(/C=C2\C(=O)Nc3ccc(F)cc32)c1C [sunitinib] (first compound 2 µM, partner dose 2 µM) | 69%
17 | COc1cc([C@@H]2c3cc4c(cc3[C@@H](O[C@@H]3O[C@@H]5CO[C@@H](C)O[C@H]5[C@H](O)[C@H]3O)[C@H]3COC(=O)[C@H]23)OCO4)cc(OC)c1O [etoposide] + O=C(Nc1cccc(Cl)c1)Nc1ncc(CCNc2ncnc3ccsc23)s1 [SNS314] (first compound 0.1 µM, partner dose 0.004 µM) | 67.8%
18 | CCN(CC)CCNC(=O)c1c(C)[nH]c(/C=C2\C(=O)Nc3ccc(F)cc32)c1C [sunitinib] + CCCS(=O)(=O)Nc1ccc(F)c(C(=O)c2c[nH]c3ncc(Cl)cc23)c1F [PLX4720] (first compound 2 µM, partner dose 0.4 µM) | 78.3%
19 | C[C@]1(O)C[C@@H](c2nc(-c3ccc4ccc(-c5ccccc5)nc4c3)c3c(N)nccn32)C1 + Nc1cccc2c1CN(C1CCC(=O)NC1=O)C2=O [lenalidomide] (first compound 2 µM, partner dose 5 µM) | 92.2%
20 | Cn1cnc2c(F)c(Nc3ccc(Br)cc3Cl)c(C(=O)NOCCO)cc21 [selumetinib] + CCc1ccc(CCOc2ccc(CC3SC(=O)NC3=O)cc2)nc1 [pioglitazone] (first compound 0.075 µM, partner dose 10 µM) | 63.6%
21 | CCN(CC)CCNC(=O)c1c(C)[nH]c(/C=C2\C(=O)Nc3ccc(F)cc32)c1C [sunitinib] + CCCCCCCCc1ccc(CCC(N)(CO)CO)cc1 [fingolimod] (first compound 2 µM, partner dose 10 µM) | 16.7%
22 | CCN(CC)CCNC(=O)c1c(C)[nH]c(/C=C2\C(=O)Nc3ccc(F)cc32)c1C [sunitinib] + NCC(=O)Nc1ccc(-n2nc(C(F)(F)F)cc2-c2ccc3c(ccc4ccccc43)c2)cc1 [OSU03012] (first compound 2 µM, partner dose 5 µM) | 56.9%
23 | Cn1cnc2c(F)c(Nc3ccc(Br)cc3Cl)c(C(=O)NOCCO)cc21 [selumetinib] + O=C(O)C(=O)Nc1sc2c(c1C(=O)O)CCNC2 [TCS401] (first compound 0.075 µM, partner dose 8.33333 µM) | 71.6%
24 | COc1cc([C@@H]2c3cc4c(cc3[C@@H](O[C@@H]3O[C@@H]5CO[C@@H](C)O[C@H]5[C@H](O)[C@H]3O)[C@H]3COC(=O)[C@H]23)OCO4)cc(OC)c1O [etoposide] + C=C(c1ccc(C(=O)O)cc1)c1cc2c(cc1C)C(C)(C)CCC2(C)C [Bexarotene] (first compound 0.1 µM, partner dose 10 µM) | 80.2%
25 | C[C@]1(O)C[C@@H](c2nc(-c3ccc4ccc(-c5ccccc5)nc4c3)c3c(N)nccn32)C1 + C=C(c1ccc(C(=O)O)cc1)c1cc2c(cc1C)C(C)(C)CCC2(C)C [Bexarotene] (first compound 2 µM, partner dose 10 µM) | 83.1%
26 | C[C@]1(O)C[C@@H](c2nc(-c3ccc4ccc(-c5ccccc5)nc4c3)c3c(N)nccn32)C1 + NC1(c2ccc(-c3nc4ccn5c(=O)[nH]nc5c4cc3-c3ccccc3)cc2)CCC1 [MK2206] (first compound 2 µM, partner dose 2 µM) | 86.2%
27 | COc1cc([C@@H]2c3cc4c(cc3[C@@H](O[C@@H]3O[C@@H]5CO[C@@H](C)O[C@H]5[C@H](O)[C@H]3O)[C@H]3COC(=O)[C@H]23)OCO4)cc(OC)c1O [etoposide] + Cn1c(Nc2ccc(C(F)(F)F)cc2)nc2cc(Oc3ccnc(-c4ncc(C(F)(F)F)[nH]4)c3)ccc21 [CHIR265] (first compound 0.1 µM, partner dose 0.4 µM) | 58.5%
28 | Cn1cnc2c(F)c(Nc3ccc(Br)cc3Cl)c(C(=O)NOCCO)cc21 [selumetinib] + O=c1cc(-c2cccc3c2Sc2ccccc2S3)oc(N2CCOCC2)c1 [KU55933] (first compound 0.075 µM, partner dose 5 µM) | 65.1%
